PubChem BioAssay AID493208 (National Center for Advancing Translational Sciences (NCATS), 2011)
Screen size: about 44,000 compounds; about 340 (0.77%) were called active. Another 5% or so got no clear call; they are omitted. Calls follow the shape of the dose curve; as a rule, active = well fitted inhibition curve with a large enough effect; inconclusive = small, poorly fitted or top-dose-only effect; inactive = flat fitted curve, though single readings scatter. This is one part of the list.

Experiment: Acumen qHTS Assay for Inhibitors of the mTORC1 Signaling Pathway in MEF (Tsc2-/-, p53-/-) Cells: Sytravon;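 also: plate controls were DMSO for no effect and rapamycin for full effect; nearly all actives have a fitted effect of over 50% in size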
Details: phospho-rpS6 immunofluorescence/PI, 24 h; series mostly up to 38.3 µM; activity change, negative = inhibition: at the top concentration
Outline: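 Tsc2-/-, p53-/- MEFs (empty-vector stable line) in DMEM + 10% FBS were treated with compounds 24 h at 37 degree Celsius, fixed, and immunostained for phospho-rpS6 (Alexa-488) with propidium iodide counterstain. Laser-scanning cytometry gave % positive cells, normalized against 7.5 nM rapamycin and DMSO.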

Activity change, negative = inhibition, inactive:
CCOc1ccccc1/C=C/c1onc(C)c1S(=O)(=O)N1CCC(C(=O)N2CCCCC2)CC1 5.11%, CCOC(=O)CSc1nc(-c2ccc(OC)cc2)cc(C(F)(F)F)c1C#N 8.05%, COc1cc(CN(C(=O)c2ccc(C)cc2)c2ccccn2)cc(OC)c1OC 0.231%, Cc1ccc(-n2nc(C)c3c(C(=O)Nc4ccc(C)cc4Cl)cc(C)nc32)cc1 -6.68%, O=C(Cn1nc2c(cc1=O)CCCC2)NCc1ccccc1 -6.99%, COc1ccc(-n2nc(C(=O)N3CCN(c4cccc(C)c4)C(C)C3)c3c4ccccc4n(C)c3c2=O)cc1Cl (stereo not drawn) 1.97%, Cc1ccccc1-c1noc(-c2ccc(NC3CCCC3)c([N+](=O)[O-])c2)n1 0.929%, O=S(=O)(c1ccc2nc(Nc3ccc(Br)cc3F)ccc2c1)N1CCCC1 1.37%, CCc1nnc(NC(=O)c2nc(SCc3ccc(F)cc3)ncc2Cl)s1 -1.48%, CCOc1ccc(OCC)c(NS(=O)(=O)c2ccc3c(c2)CCCN3C(C)=O)c1 -3.12%, CCCCn1c(C2CC(=O)N(c3ccc(OCC)cc3)C2)nc2ccccc21 (stereo not drawn) -4.38%, O=C(OCC1CCCO1)c1ccc2c(c1)N(Cc1c(F)cccc1Cl)C(=O)c1ccccc1S2(=O)=O (stereo not drawn) 0.808%, Cc1cc(C)c(NC(=O)c2ccc3nc(C(C)C)oc3c2)c(C)c1 2.73%, CCOCCn1c(=NC(=O)c2ccc3c(c2)OCCO3)sc2cc(OCC)ccc21 -4.34%, Cc1cccc(S(=O)(=O)c2cn(Cc3ccc(F)cc3)c3cc(N4CCOCC4)c(F)cc3c2=O)c1 -0.0113%, O=C(Nc1ccccc1C(F)(F)F)C1CCN(c2nnc(-n3cccc3)s2)CC1 2.99%, Cc1ccc(Cl)cc1N1CCN(C(=O)c2cnc3c(-c4ccc(F)cc4)c(C)nn3c2C)CC1 0%, CCC(C(=O)NC1CCCCC1)n1nc(C)c2sc3ccccc3c2c1=O (stereo not drawn) -1.41%, CCN(CC)S(=O)(=O)c1ccc2c(c1)c(=O)c(C(=O)N1CCN(c3cc(C)ccc3C)CC1)cn2C -0.413%, O=C(Cn1cc(SCc2ccc(F)cc2)c2ccccc21)N1CCCC1 -2.96%, COc1ccc(NCc2cccn2-c2nnc(N3CCC(C)CC3)s2)c(OC)c1 -12.8%, Cc1cccc(-c2nc(S(=O)(=O)c3ccccc3)c(N3CCN(c4ccccc4)CC3)o2)c1 6.49%, CSc1ccc(-c2nc3cc(C)ccn3c2Nc2ccc(C)cc2)cc1 -1.24%, CCc1ccc(NC(=O)C(=O)NCCc2sc(-c3ccc(C)cc3)nc2C)cc1 0.258%, O=C(CSc1nc2c(c(=O)[nH]1)CCC2)Nc1cc(C(F)(F)F)ccc1Cl -0.354%, Cn1ccc2c(OCC(=O)NCc3ccc(F)cc3)cccc2c1=O 1.46%, Cc1ccc(C(=O)c2cn(Cc3ccccc3)c3cc4c(cc3c2=O)OCCO4)cc1 -16.1%, CCc1cccc(NC(=O)CSc2nccn2C)c1 5.53%, COc1c(Cl)cc(Cl)cc1C(=O)Nc1cccc2cccnc12 4.05%, CCOC(=O)c1cc(S(=O)(=O)Nc2cc(C)c(Cl)cc2OC)[nH]n1 0.206%, CC(C)OCCCNC(=O)c1c2c(nc3ccccc13)C(=O)N(C1CCCCC1)C2 -10.4%, Cc1ccn2c(Nc3ccc(C(C)C)cc3)c(-c3ccsc3)nc2c1 -7.57%, CC(=O)c1ccc(NC(=O)CSc2nnc(NC(=O)NC3CCCCC3)s2)cc1 -1.7%, CCOC(=O)c1cc(-c2ccccc2)n(CC(=O)Nc2cc(Cl)c(OC)cc2OC)c1C -7.67%, Cc1cc(C)c(NC(=O)Nc2sc3nc4n(c(=O)c3c2C)CCC(C)CC4)c(C)c1 (stereo not drawn) -0.124%, CCCCCOc1ccccc1Cn1c(=O)oc2ccc(C)cc21 2.59%, Cc1ccc(Nc2c(-c3ccc(N4CCOCC4)cc3)nc3ncccn23)c(C)c1 -5%, COCCNC(=O)CCSc1nc(-c2ccc(OC)cc2)cc(C(F)(F)F)n1 -4.65%, Cc1nn(C(C)C(=O)Nc2cccc(F)c2)c(=O)c2c1sc1ccccc12 (stereo not drawn) 2.29%, CC1CCCN(Cc2c(O)ccc3c(=O)c(-c4ccccc4Cl)c(C(F)(F)F)oc23)C1 (stereo not drawn) -2.19%, Cc1cc(C)c(NS(=O)(=O)c2ccc3c(c2)NC(=O)CCS3)c(C)c1 -4.5%, O=C(COc1ccc(Cl)cc1)N(Cc1ccco1)c1ccccn1 -4.37%, COc1ccc(C2=NN(S(C)(=O)=O)C(c3cn(-c4ccccc4)nc3-c3cccs3)C2)cc1 (stereo not drawn) -1.83%, Cc1ccc(S(=O)(=O)N(CC(O)Cn2c3ccccc3c3ccccc32)c2cccc(C(=O)N(C)C)c2)cc1 (stereo not drawn) -20.7%, COc1ccc(C(=O)NCC(c2ccc3c(c2)OCO3)N2CCOCC2)cc1 (stereo not drawn) -3.02%, Cc1ccc(CN2C(=O)c3ccccc3Sc3ccc(C(=O)NCc4ccco4)cc32)cc1 11.8%, CCCn1c(=N)c(C(=O)NCc2cccnc2)cc2c(=O)n3cccc(C)c3nc21 0.457%, COc1cccc(-c2ccnc3c(-c4ccc(F)cc4)c(C)nn23)c1 -7.54%, Cc1ccc(Oc2nc3c(c(=O)n(Cc4ccccc4)c(=O)n3C)n2C)cc1C -17.3%, Cc1oc2ncnc(N3CCOCC3)c2c1C(=O)N1CCN(c2cccc(C(F)(F)F)c2)CC1 1.77%, CCN(C(=O)C1CCC(CNS(=O)(=O)c2cccc3nsnc23)CC1)c1cccc(C)c1 (stereo not drawn) -5.83%, CCN(C(=O)C1CCC(CNS(=O)(=O)c2cccc3nsnc23)CC1)c1ccccc1 (stereo not drawn) -4.96%, CC1(C)CC(=O)c2cc(C(=O)Nc3ccc(Br)cc3)c(=O)[nH]c2C1 11%, COc1ccc(NC(=O)C2=C(C)Nc3ncnn3C2c2ccc(C)o2)cc1 (stereo not drawn) -8.39%, Cc1ccc(-c2nc3ccccn3c2Nc2ccc3c(c2)OCCO3)s1 -17.9%, O=C(Cc1ccc(NC(=O)N2CCSc3ncccc32)cc1)NCc1ccccc1 -5.41%, Cc1cc(C)cc(NC(=O)Cn2c(=O)n(C(C)C)c(=O)c3oc4ccccc4c32)c1 -0.142%, COc1ccc(OCC(=O)N2CCN(C(=O)c3cc(OC)c(OC)c(OC)c3)CC2)cc1 -9.66%, COc1ccc(/C=C/C(=O)N2CCC(c3nc4ccccc4o3)CC2)cc1OC 1.09%, CCOc1ccccc1NC(=O)N(C)CCc1c(C)nn(CC)c1C 0%, CCOc1ccc(C2N3CC4(C(C)C)CN2CC(C(C)C)(C3)C4=O)cc1OC (stereo not drawn) 3.27%, Cc1ccc(NC(=O)c2ccc(=O)n(CC(=O)Nc3c(C)cc(C)cc3C)n2)cc1 2.75%, Cc1ccc(COc2ccc3oc(-c4ccccc4)c(C(=O)O)c3c2)cc1 -7.53%, COc1ccc(-n2nc(C(=O)Nc3ccc(Br)cc3C)c3c4ccccc4n(C)c3c2=O)cc1 0.777%, COc1ccc(C(=O)N2CC(=O)Nc3ccc(C)cc3C2c2ccccc2)cc1OC (stereo not drawn) -2.16%, CCOc1ccc(C2C=C(c3cccc(OC)c3)Nc3nnnn32)cc1 (stereo not drawn) -9.5%, O=C(COc1ccccc1)NCC(c1cccs1)S(=O)(=O)c1ccc(Cl)cc1 (stereo not drawn) -7.2%, CC(C)(C)c1ccc(C(=O)NNc2ncnc3c2cnn3-c2ccccc2)cc1 0.282%, CCN(C(=O)Cn1c(SCC(=O)Nc2ccc(OC)cc2)nc2ccccc21)c1cccc(C)c1 12.6%, COc1cccc(C(=O)Nc2ccc(-n3nncc3-c3ccc(Br)cc3)cc2)c1OC -1.39%, Cc1cc(C)n2c(Nc3ccccc3C)c(-c3cccs3)nc2n1 6.79%, Cc1cccc(Nc2nc(C)nc(N)c2S(=O)(=O)c2ccccc2)c1 -0.398%, Cc1c(C2=CCN(S(=O)(=O)c3ccc(Br)cc3)CC2)c2ccccc2n1CC(=O)N1CCCC1 0.537%, CCOc1ccc(NC(=O)CN(Cc2ccccc2)S(=O)(=O)c2ccc(Cl)cc2)cc1 3.52%, COc1ccc2nc3oc(C(=O)Nc4cccc(C(F)(F)F)c4)cc3cc2c1 -4.89%, Cc1cc(C)cc(NS(=O)(=O)c2ccc3c(c2)OCC(C(=O)N2CCCC2)O3)c1 (stereo not drawn) -14.5%, Cc1ccccc1CN1CCc2nc(N3CCN(c4ccccn4)CC3)ncc2C1 0%, Cc1ccc2nc(-c3ccc(C)c(NC(=O)Cc4ccccc4)c3)oc2c1 5.17%, CCCC12CN3CC(C)(CN(C1)C3c1ccccc1Cl)C2=O (stereo not drawn) -6.63%, CCc1c(C)sc2c1CCN(C(=O)Nc1ccccc1C(=O)OC)C2c1ccc(F)cc1 (stereo not drawn) 0%, CCNC(=O)c1c(NC(=O)COc2ccc(F)cc2)sc2c1CCCC2 17%, O=C(Nc1ccc(Br)cc1)N1CCC(CN2CCCC2)CC1 -0.31%, CCOc1ccc(C2C(C(=O)Nc3ccc(OC)cc3)=C(C)Nc3nc(SCc4ccc(Cl)cc4)nn32)cc1 (stereo not drawn) 8.46%, COc1ccc(N2CCN(CCCNC(=O)c3ccc4nc(CCc5ccccc5)oc4c3)CC2)cc1 -17.7%, Cc1ccccc1NC(=O)CS(=O)(=O)c1cccc2nsnc12 1.44%, Cc1c(Cl)cccc1NC(=O)c1ccc(NC(=O)N2CCSc3ncccc32)cc1 -1.72%, CCCc1ccc(OCC(=O)Nc2scc(-c3cccs3)c2C(=O)OC)cc1 -1.84%, COc1ccc2c(c1)CC(C(=O)NCCN1CCN(c3cccc(Cl)c3)CC1)CO2 (stereo not drawn) -17.4%, O=C(c1ccc2c(c1)N(Cc1ccc(F)cc1)CCS2)N1CCN(c2ccccc2)CC1 -16.3%, Cc1nc(Oc2ccccc2C)c2oc3ccccc3c2n1 -0.216%, Cc1ccc(CNC(=O)c2sc3nc4n(c(=O)c3c2C)CCCC4)cc1 9.45%, COc1cc(CNC(=O)CSCc2nc3cccnc3n2C2CCCCC2)cc(OC)c1OC -9.62%, CCOc1cc(C#N)c(NC(=O)c2cccc(S(=O)(=O)N3CCOCC3)c2)cc1OCC -6.95%, O=C(CCNS(=O)(=O)c1ccc2c(c1)CCCC(=O)N2)NCc1ccccc1Cl 4.94%, CCC(=O)N1CCc2cc(CNC(=O)Nc3ccccc3Cl)ccc21 -1.13%, COc1cccc(NC(=O)CN(C)S(=O)(=O)c2cccs2)c1 2.66%, CC(C(=O)NCc1ccccc1)N1Cc2ccccc2C1=O (stereo not drawn) -3.47%, CC1CCN(C(=O)CSc2nc(-c3ccc(C(C)C)cc3)no2)CC1 -10.9%
